B1: chr1:58468927:58468928:-_ENSMUSG00000026034_ENSMUST00000148330|mus_mus|mus_mus_mus_hu_False|68_108 (ssRNA)
RNA: GGGAGUUCUACAGUCCGACGAUCAAUCUAUAAUUACGAUGUUCAUUACCUUAGCUAUGUACUUAAUUUAAUAAAGCACCCAAACAAAAUAAACAUGGCAAUAUAAAAAUGUUAAGAAUUUACAAAGCUGUACAAAAUAACUUACAACAGAGGAUUGAGCAUCA
B2: chr2:228221723:228221724:+_ENSG00000168958_ENST00000354503|hu_mus|motif|central (ssRNA)
RNA: GGGAGUUCUACAGUCCGACGAUCGACCAUUUCUCUUUUAGCACGCUCUUUAUUCUCCUCUUCCAGAAGUUGGAGACGUCGGUUUAAUUUGAUUAUCUGACGUCUUAAUGAAGCUGCAUCUACCACAGUCAUGUCAUCUGAAGCCAACAGAGGAUUGAGCAUCA
B3: 34018048_34018168_882_CDS_ENSMUSG00000039485_ENSMUST00000047935|mouse|control|control (ssRNA)
RNA: GGGAGUUCUACAGUCCGACGAUCUCUUGGCUGCUUAAGCUCCUCCACCUCUAAAUUGAUCAUGUACCUCAUCAUGUCUUCAUCUUGGCCACUAAUCAUUGGUGACAGCUGGGGGUGGUUCCGAAAAGCGGUGACCCAGAAACCCAACAGAGGAUUGAGCAUCA
B4: chr7:141441981:141441982:+_ENSG00000106028_ENST00000265304|hu_mus|hu_hu_hu_mus_False|18_88 (ssRNA)
RNA: GGGAGUUCUACAGUCCGACGAUCCUCAUGUCUUACAAACUGACGAAGUACCUGUAACACAGGUCUUCGAAACAUGGCUUCUGUUUUUCUUACAACCUAAUCUUUAGGCUUUUCCUACCUGACGAUCAGAAAAGAGAAAAAUGACAACAGAGGAUUGAGCAUCA
B5: chr1:93301758:93301759:+_ENSG00000122406_ENST00000370321|hu_hu|FALSE|FALSE (ssRNA)
RNA: GGGAGUUCUACAGUCCGACGAUCGUAUUCAUCACCAGUCACCUCCACUUGGCCUUCAUAGAUCUUGUCCAUGCCAAACCUAUUGAGAAGCCUGCGGGCCAGCAGCAGGCCAGUACAAUAUGCUGCAGCAUAAUUUGUCAGGCCCAACAGAGGAUUGAGCAUCA
B6: chr12:32625335:32625336:-_ENSMUSG00000002996_ENSMUST00000172314|mus_mus|FALSE|FALSE (ssRNA)
RNA: GGGAGUUCUACAGUCCGACGAUCUGGAUAUUCUUGAUGAGAUACAUCUGAACUUAGCUGGUAUAUGGCAGAUUGGGUAGGGUCACUUUGAACAGCCUGAAGUUCAGGAAGGUCAUCAAGCUCCAUGUGCUCAUCACAGGAGUUCAACAGAGGAUUGAGCAUCA
B7: chr6:51417264:51417265:-_ENSMUSG00000004980_ENSMUST00000090002|mus_hu|FALSE|FALSE (ssRNA)
RNA: GGGAGUUCUACAGUCCGACGAUCAAGAGCUUACGGAACUGUUCCUUUUCUCUCUUUUUCCUCUCCAAAGGAACAGUUUCUAAAGUUUUCUCCAUCGCGGACUCAGUCGCUUCAGCCCGAUUUCCCGCAGCCGAGCGAGAUGAGCAACAGAGGAUUGAGCAUCA
B8: chrX:16870723:16870724:-_ENSG00000102054_ENST00000404022|hu_mus|motif|central (ssRNA)
RNA: GGGAGUUCUACAGUCCGACGAUCCUUAUGCGAUUCAAAGGUGUGGAGUUUUAGUUUCAGAUUACGCAGGUCCCAUAAAGCGGCAGUCUUAUCUGCAGAGCCAGUUGCCAGAAUGAACUCGCUGUAGGGAUUGAAUGAGAGGCACAACAGAGGAUUGAGCAUCA
B9: chr9:24234919:24234920:-_ENSMUSG00000043067_ENSMUST00000142064|mus_mus|motif|central (ssRNA)
RNA: GGGAGUUCUACAGUCCGACGAUCGUAAACCAACUCUCCAUGUUCAAAUUGUUGUUUUCUUGUAUGUGUCCGUUGUUUAGCGGCGACACCCCGCAUAUCAUUAAAAAUCUUUCUAACAAUGGCAGCGACGGUGACCAGAACCACCAACAGAGGAUUGAGCAUCA
B10: chr9:101115835:101115836:-_ENSMUSG00000043154_ENSMUST00000075941|mus_mus|FALSE|FALSE (ssRNA)
RNA: GGGAGUUCUACAGUCCGACGAUCUGUCAGAUAAACCUUAGUUGAUGGUACAGGAUUACUGUGAUAACUGAGUCCUCCCAGGCCUUAAGUGAUCCAUUUUUUUUUUUUUUUUUUUUUUUGGUGGGCGACAGAGAAACCUCAGUGCAACAGAGGAUUGAGCAUCA
B11: chr4:144461564:144461565:+_ENSG00000153147_ENST00000283131|hu_hu|FALSE|FALSE (ssRNA)
RNA: GGGAGUUCUACAGUCCGACGAUCCCUCCCUUGUUGAAUGACUAUUGAAUCCAGUCUGAGUUUCAUCUCAGCACGUUCUACUAUUCUUUCUUCUACAGUGUUAUCAGUUAUAAAGCGGAACACUCUGACUGUCUUAGUCUGCCCCAACAGAGGAUUGAGCAUCA
B12: chr2:201680209:201680210:+_ENSG00000082153_ENST00000409600|hu_hu|FALSE|FALSE (ssRNA)
RNA: GGGAGUUCUACAGUCCGACGAUCGUCAUCUGCCAGUGUACCACCUGGGGCCAGCAUUCCACCAGCCACCAGAAUGUCAAAGAGUGUUUCUGCAUAUCGACGGUAAUCAAGUUUUGCUCCAGAAGCAUCAAGAAACUUAGCUACCAACAGAGGAUUGAGCAUCA
B13: 113732717_113735539_1954_CDS_ENSG00000126217_ENST00000375604|human|control|control (ssRNA)
RNA: GGGAGUUCUACAGUCCGACGAUCGCUCAUCACGUGCCUGCGCAGGAUGGCCAGGCUUUCCUCCUCCUCCCCCGCUGAGCCGCGGCCCUGCCGGCUCUCACUCAUCUCACUCUUGGCCCUCCGGUAGGGCCCUCUCCGGAGCGCCAACAGAGGAUUGAGCAUCA
B14: 38194907_38196095_1283_CDS_ENSG00000147548_ENST00000316985|human|control|control (ssRNA)
RNA: GGGAGUUCUACAGUCCGACGAUCCCACACAAGAUCGCCAACCUGAAACUUAACACCAGUGGACACUUCCGUUGUUGGAACAGAAGAUAGUAUUGGCUGAACUGGGGCUUCCUCUUUUAGUACUGGUUCUUCCCUUGGUUUUUCCAACAGAGGAUUGAGCAUCA

The other results are listed elsewhere or left out.

The target of this assay is T1, UNK ZnF1-3 (human, UniProt Q9C0B0 31-174).
T1 sequence: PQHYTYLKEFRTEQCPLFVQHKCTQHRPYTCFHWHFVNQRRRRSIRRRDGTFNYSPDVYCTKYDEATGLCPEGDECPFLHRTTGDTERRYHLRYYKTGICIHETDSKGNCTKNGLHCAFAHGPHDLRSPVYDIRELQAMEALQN
Briefly: nsRBNS (natural sequence RNA bind-n-seq); RBNS binding buffer (assumed for nsRBNS): 25 mM Tris pH 7.5, 150 mM KCl, 3 mM MgCl2, 0.01% Triton X-100, 500 ug/ml BSA, 20 U/ml SUPERase-In, 4 C; UNK is unkempt and MSI1 is Musashi-1; names of the RNAs are library labels; protein concentration not given here; high values mean tight binding.
On to B1, for which the binding signal was 0.792 enrichment R.
For B2 the value was 0.719 enrichment R.
For the molecule B3, the binding signal worked out at 1.2 enrichment R.
In turn, B4 had a binding signal of 0.616 enrichment R.
For B5 the value was 0.75 enrichment R.
The result for B6 reads 0.618 enrichment R.
Turning to B7, the binding signal turned out to be 0.4 enrichment R.
B8: the binding signal was 1.25 enrichment R.
The result for B9 reads 0.874 enrichment R; that for B10, 0.924 enrichment R; that for B11, 0.797 enrichment R.
The molecule B12 came in with a binding signal of 0.782 enrichment R.
The result for B13 reads 0.83 enrichment R; that for B14, 0.947 enrichment R.

The values are drawn from PMC12136788.
